# The list shows a part of the results.
# B1: Mg1lysM (Mycosphaerella graminicola) (protein)
# chain: QRNPITITPQFDCGATNSQQYVARSGDTLTKIAQEIYHDVVGVCDIARANNLADPNRIDAGTPYTIPINCQTYDRNSCL
# Columns and labels:
# Assay in all cases: glycan array binding signal (z-score within array); higher = stronger binding
# Conditions in all cases: glycan notation: IUPAC condensed, linker removed
# [1] = biological target: Fuc(a1-2)Gal
# Procedure, shortened: (§1)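 The binding signal is a Z-score computed within each array. Data were drawn from 3228 arrays in the Consortium for Functional Glycomics database, restricted to those with a known protein sequence. Scores were averaged over arrays of the same protein sequence at different concentrations or buffers, and over linkers, and negative values can be taken as non-binding.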
# [2] = biological target: Fuc(a1-2)Gal(b1-3)GalNAc
# Procedure, shortened: as §1
# [3] = biological target: Fuc(a1-2)Gal(b1-3)GalNAc(a1-3)[Fuc(a1-2)]Gal(b1-4)Glc
# Procedure, shortened: as §1
# [4] = biological target: Fuc(a1-2)Gal(b1-3)GalNAc(a1-3)[Fuc(a1-2)]Gal(b1-4)GlcNAc
# Procedure, shortened: as §1
# [5] = biological target: Fuc(a1-2)Gal(b1-3)GalNAc(b1-3)Gal
# Procedure, shortened: as §1
# [6] = biological target: Fuc(a1-2)Gal(b1-3)GalNAc(b1-3)Gal(a1-4)Gal(b1-4)Glc
# Procedure, shortened: as §1
# [7] = biological target: Fuc(a1-2)Gal(b1-3)GalNAc(b1-4)[Neu5Ac(a2-3)]Gal(b1-4)Glc
# Procedure, shortened: as §1
# [8] = biological target: Fuc(a1-2)Gal(b1-3)GlcNAc
# Procedure, shortened: as §1
# [9] = biological target: Fuc(a1-2)Gal(b1-3)GlcNAc(b1-2)Man(a1-3)[Fuc(a1-2)Gal(b1-3)GlcNAc(b1-2)Man(a1-6)]Man(b1-4)GlcNAc(b1-4)GlcNAc
# Procedure, shortened: as §1
# [10] = biological target: Fuc(a1-2)Gal(b1-3)GlcNAc(b1-2)Man(a1-3)[Fuc(a1-2)Gal(b1-3)GlcNAc(b1-2)Man(a1-6)]Man(b1-4)GlcNAc(b1-4)[Fuc(a1-6)]GlcNAc
# Procedure, shortened: as §1
# [11] = biological target: Fuc(a1-2)Gal(b1-3)GlcNAc(b1-3)Gal(b1-4)Glc
# Procedure, shortened: as §1
# [12] = biological target: Fuc(a1-2)Gal(b1-3)GlcNAc(b1-3)GalNAc
# Procedure, shortened: as §1
# [13] = biological target: Fuc(a1-2)Gal(b1-3)GlcNAc(b1-3)[Fuc(a1-2)Gal(b1-3)GlcNAc(b1-6)]GalNAc
# Procedure, shortened: as §1
# [14] = biological target: Fuc(a1-2)Gal(b1-3)GlcNAc(b1-3)[Gal(b1-4)GlcNAc(b1-6)]Gal(b1-4)Glc
# Procedure, shortened: as §1
# [15] = biological target: Fuc(a1-2)Gal(b1-3)GlcNAc(b1-3)[Neu5Ac(a2-6)Gal(b1-4)GlcNAc(b1-6)]Gal(b1-4)Glc
# Procedure, shortened: as §1
# [16] = biological target: Fuc(a1-2)Gal(b1-3)GlcNAc6S
# Procedure, shortened: as §1
# [17] = biological target: Fuc(a1-2)Gal(b1-3)[Fuc(a1-4)]GlcNAc
# Procedure, shortened: as §1
# [18] = biological target: Fuc(a1-2)Gal(b1-3)[Fuc(a1-4)]GlcNAc(b1-2)Man(a1-3)[Fuc(a1-2)Gal(b1-3)[Fuc(a1-4)]GlcNAc(b1-2)Man(a1-3)]Man(b1-4)GlcNAc(b1-4)GlcNAc
# Procedure, shortened: as §1
# [19] = biological target: Fuc(a1-2)Gal(b1-3)[Fuc(a1-4)]GlcNAc(b1-2)Man(a1-3)[Fuc(a1-2)Gal(b1-3)[Fuc(a1-4)]GlcNAc(b1-2)Man(a1-6)]Man(b1-4)GlcNAc(b1-4)[Fuc(a1-6)]GlcNAc(b1-4)[Fuc(a1-6)]GlcNAc
# Procedure, shortened: as §1
# [20] = biological target: Fuc(a1-2)Gal(b1-3)[Fuc(a1-4)]GlcNAc(b1-3)[Fuc(a1-3)[Gal(b1-4)]GlcNAc(b1-6)]Gal(b1-4)Glc
# Procedure, shortened: as §1
# [21] = biological target: Fuc(a1-2)Gal(b1-3)[Fuc(a1-4)]GlcNAc(b1-3)[Gal(b1-4)GlcNAc(b1-6)]Gal(b1-4)Glc
# Procedure, shortened: as §1
# [22] = biological target: Fuc(a1-2)Gal(b1-4)Fuc(a1-3)]GlcNAc(b1-2)Man(a1-3)[Fuc(a1-2)Gal(b1-4)[Fuc(a1-3)]GlcNAc(b1-2)Man(a1-6)]Man(b1-4)GlcNAc(b1-4)GlcNAc
# Procedure, shortened: as §1
# [23] = biological target: Fuc(a1-2)Gal(b1-4)Glc
# Procedure, shortened: as §1
# [24] = biological target: Fuc(a1-2)Gal(b1-4)Glc6S
# Procedure, shortened: as §1
# [25] = biological target: Fuc(a1-2)Gal(b1-4)GlcNAc
# Procedure, shortened: as §1
# [26] = biological target: Fuc(a1-2)Gal(b1-4)GlcNAc(b1-2)Man
# Procedure, shortened: as §1
# [27] = biological target: Fuc(a1-2)Gal(b1-4)GlcNAc(b1-2)Man(a1-3)[Fuc(a1-2)Gal(b1-4)GlcNAc(b1-2)Man(a1-6)]Man(b1-4)GlcNAc(b1-4)GlcNAc
# Procedure, shortened: as §1
# [28] = biological target: Fuc(a1-2)Gal(b1-4)GlcNAc(b1-2)Man(a1-3)[Fuc(a1-2)Gal(b1-4)GlcNAc(b1-2)Man(a1-6)]Man(b1-4)GlcNAc(b1-4)[Fuc(a1-6)]GlcNAc
# Procedure, shortened: as §1
# [29] = biological target: Fuc(a1-2)Gal(b1-4)GlcNAc(b1-2)[Fuc(a1-2)Gal(b1-4)GlcNAc(b1-4)]Man(a1-3)[Fuc(a1-2)Gal(b1-4)GlcNAc(b1-2)Man(a1-6)]Man(b1-4)GlcNAc(b1-4)GlcNAc
# Procedure, shortened: as §1
# [30] = biological target: Fuc(a1-2)Gal(b1-4)GlcNAc(b1-3)Gal(b1-4)GlcNAc
# Procedure, shortened: as §1
# [31] = biological target: Fuc(a1-2)Gal(b1-4)GlcNAc(b1-3)Gal(b1-4)GlcNAc(b1-2)Man(a1-3)[Fuc(a1-2)Gal(b1-4)GlcNAc(b1-3)Gal(b1-4)GlcNAc(b1-2)Man(a1-6)]Man(b1-4)GlcNAc(b1-4)GlcNAc
# Procedure, shortened: as §1
# [32] = biological target: Fuc(a1-2)Gal(b1-4)GlcNAc(b1-3)Gal(b1-4)GlcNAc(b1-3)Gal(b1-4)GlcNAc
# Procedure, shortened: as §1
# [33] = biological target: Fuc(a1-2)Gal(b1-4)GlcNAc(b1-3)GalNAc
# Procedure, shortened: as §1
# [34] = biological target: Fuc(a1-2)Gal(b1-4)GlcNAc(b1-3)[Fuc(a1-2)Gal(b1-4)GlcNAc(b1-6)]GalNAc
# Procedure, shortened: as §1
# [35] = biological target: Fuc(a1-2)Gal(b1-4)GlcNAc(b1-3)[Fuc(a1-3)[Gal(b1-4)]GlcNAc(b1-6)]Gal(b1-4)Glc
# Procedure, shortened: as §1
# [36] = biological target: Fuc(a1-2)Gal(b1-4)GlcNAc(b1-6)GalNAc
# Procedure, shortened: as §1
# [37] = biological target: Fuc(a1-2)Gal(b1-4)GlcNAc6S
# Procedure, shortened: as §1
# [38] = biological target: Fuc(a1-2)Gal(b1-4)[Fuc(a1-3)]GlcNAc
# Procedure, shortened: as §1
# [39] = biological target: Fuc(a1-2)Gal(b1-4)[Fuc(a1-3)]GlcNAc(b1-2)Man(a1-3)[Fuc(a1-2)Gal(b1-4)[Fuc(a1-3)]GlcNAc(b1-2)Man(a1-6)]Man(b1-4)GlcNAc(b1-4)[Fuc(a1-6)]GlcNAc
# Procedure, shortened: as §1
# [40] = biological target: Fuc(a1-2)Gal(b1-4)[Fuc(a1-3)]GlcNAc(b1-2)[Fuc(a1-2)Gal(b1-4)[Fuc(a1-3)]GlcNAc(b1-4)]Man(a1-3)[Fuc(a1-2)Gal(b1-4)[Fuc(a1-3)]GlcNAc(b1-2)Man(a1-6)]Man(b1-4)GlcNAc(b1-4)GlcNAc
# Procedure, shortened: as §1
# [41] = biological target: Fuc(a1-2)Gal(b1-4)[Fuc(a1-3)]GlcNAc(b1-3)Gal(b1-4)[Fuc(a1-3)]GlcNAc
# Procedure, shortened: as §1
# [42] = biological target: Fuc(a1-2)Gal(b1-4)[Fuc(a1-3)]GlcNAc(b1-3)Gal(b1-4)[Fuc(a1-3)]GlcNAc(b1-3)Gal(b1-4)[Fuc(a1-3)]GlcNAc
# Procedure, shortened: as §1
# [43] = biological target: Fuc(a1-2)Gal(b1-4)[Fuc(a1-3)]GlcNAc(b1-3)GalNAc
# Procedure, shortened: as §1
# [44] = biological target: Fuc(a1-2)Gal(b1-4)[Fuc(a1-3)]GlcNAc(b1-3)[Neu5Ac(a2-6)Gal(b1-4)GlcNAc(b1-6)]Gal(b1-4)Glc
# Procedure, shortened: as §1
# [45] = biological target: Fuc(a1-2)Gal3S(b1-4)GlcNAc
# Procedure, shortened: as §1
binder,measurement,setting,value
B1,glycan array binding signal (z-score),[1],-0.028
same,glycan array binding signal (z-score),[2],-0.076
same,glycan array binding signal (z-score),[3],-0.09
same,glycan array binding signal (z-score),[4],-0.086
same,glycan array binding signal (z-score),[5],-0.086
same,glycan array binding signal (z-score),[6],-0.052
same,glycan array binding signal (z-score),[7],-0.068
same,glycan array binding signal (z-score),[8],-0.056
same,glycan array binding signal (z-score),[9],-0.035
same,glycan array binding signal (z-score),[10],-0.07
same,glycan array binding signal (z-score),[11],-0.073
same,glycan array binding signal (z-score),[12],-0.088
same,glycan array binding signal (z-score),[13],-0.074
same,glycan array binding signal (z-score),[14],-0.097
same,glycan array binding signal (z-score),[15],-0.088
same,glycan array binding signal (z-score),[16],-0.037
same,glycan array binding signal (z-score),[17],-0.053
same,glycan array binding signal (z-score),[18],-0.071
same,glycan array binding signal (z-score),[19],-0.005
same,glycan array binding signal (z-score),[20],-0.076
same,glycan array binding signal (z-score),[21],-0.074
same,glycan array binding signal (z-score),[22],-0.028
same,glycan array binding signal (z-score),[23],-0.06
same,glycan array binding signal (z-score),[24],-0.091
same,glycan array binding signal (z-score),[25],-0.058
same,glycan array binding signal (z-score),[26],-0.079
same,glycan array binding signal (z-score),[27],-0.053
same,glycan array binding signal (z-score),[28],-0.075
same,glycan array binding signal (z-score),[29],-0.073
same,glycan array binding signal (z-score),[30],-0.072
same,glycan array binding signal (z-score),[31],-0.081
same,glycan array binding signal (z-score),[32],-0.049
same,glycan array binding signal (z-score),[33],-0.07
same,glycan array binding signal (z-score),[34],-0.094
same,glycan array binding signal (z-score),[35],-0.066
same,glycan array binding signal (z-score),[36],-0.039
same,glycan array binding signal (z-score),[37],-0.058
same,glycan array binding signal (z-score),[38],-0.053
same,glycan array binding signal (z-score),[39],0.076
same,glycan array binding signal (z-score),[40],-0.065
same,glycan array binding signal (z-score),[41],-0.061
same,glycan array binding signal (z-score),[42],-0.063
same,glycan array binding signal (z-score),[43],-0.083
same,glycan array binding signal (z-score),[44],-0.065
same,glycan array binding signal (z-score),[45],-0.038

# Reference: the supplement of paper PMC8728848
